# In the supplement of paper PMC8728848:
# The other results are listed elsewhere or left out.
# How the values were obtained:
# Test in all cases: glycan array binding signal (z-score within array); higher = stronger binding
# Details in all cases: glycan notation: IUPAC condensed, linker removed
# [1] = target: Fuc(a1-2)Gal
# Outline: (§1)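 Negative Z-scores can be read as non-binding. The Z-score is calculated within each array and then averaged across arrays of one protein sequence at different concentrations or buffers and across linkers. Arrays, 3228 in all, were curated from the Consortium for Functional Glycomics database and kept only where the protein sequence was available.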
# [2] = target: Fuc(a1-2)Gal(b1-3)GalNAc
# Outline: as §1
# [3] = target: Fuc(a1-2)Gal(b1-3)GalNAc(b1-3)Gal
# Outline: as §1
# [4] = target: Fuc(a1-2)Gal(b1-3)GalNAc(b1-3)Gal(a1-4)Gal(b1-4)Glc
# Outline: as §1
# [5] = target: Fuc(a1-2)Gal(b1-3)GalNAc(b1-4)[Neu5Ac(a2-3)]Gal(b1-4)Glc
# Outline: as §1
# [6] = target: Fuc(a1-2)Gal(b1-3)GlcNAc
# Outline: as §1
# [7] = target: Fuc(a1-2)Gal(b1-3)GlcNAc(b1-2)Man(a1-3)[Fuc(a1-2)Gal(b1-3)GlcNAc(b1-2)Man(a1-6)]Man(b1-4)GlcNAc(b1-4)GlcNAc
# Outline: as §1
# [8] = target: Fuc(a1-2)Gal(b1-3)GlcNAc(b1-3)Gal(b1-4)Glc
# Outline: as §1
# [9] = target: Fuc(a1-2)Gal(b1-3)GlcNAc(b1-3)[Gal(b1-4)[Fuc(a1-3)]GlcNAc(b1-6)]Gal(b1-4)Glc
# Outline: as §1
# [10] = target: Fuc(a1-2)Gal(b1-3)[Fuc(a1-4)]GlcNAc
# Outline: as §1
# [11] = target: Fuc(a1-2)Gal(b1-3)[Fuc(a1-4)]GlcNAc(b1-2)Man(a1-3)[Fuc(a1-2)Gal(b1-3)[Fuc(a1-4)]GlcNAc(b1-2)Man(a1-6)]Man(b1-4)GlcNAc(b1-4)GlcNAc
# Outline: as §1
# [12] = target: Fuc(a1-2)Gal(b1-4)Glc
# Outline: as §1
# [13] = target: Fuc(a1-2)Gal(b1-4)Glc6S
# Outline: as §1
# [14] = target: Fuc(a1-2)Gal(b1-4)GlcNAc
# Outline: as §1
# [15] = target: Fuc(a1-2)Gal(b1-4)GlcNAc(b1-2)Man(a1-3)[Fuc(a1-2)Gal(b1-4)GlcNAc(b1-2)Man(a1-6)]Man(b1-4)GlcNAc(b1-4)GlcNAc
# Outline: as §1
# [16] = target: Fuc(a1-2)Gal(b1-4)GlcNAc(b1-3)Gal(b1-4)GlcNAc
# Outline: as §1
# [17] = target: Fuc(a1-2)Gal(b1-4)GlcNAc(b1-3)Gal(b1-4)GlcNAc(b1-3)Gal(b1-4)GlcNAc
# Outline: as §1
# [18] = target: Fuc(a1-2)Gal(b1-4)GlcNAc6S
# Outline: as §1
# [19] = target: Fuc(a1-2)Gal(b1-4)[Fuc(a1-3)]GlcNAc
# Outline: as §1
# [20] = target: Fuc(a1-2)Gal(b1-4)[Fuc(a1-3)]GlcNAc(b1-2)Man(a1-3)[Fuc(a1-2)Gal(b1-4)[Fuc(a1-3)]GlcNAc(b1-2)Man(a1-6)]Man(b1-4)GlcNAc(b1-4)GlcNAc
# Outline: as §1
# [21] = target: Fuc(a1-2)Gal(b1-4)[Fuc(a1-3)]GlcNAc(b1-3)Gal(b1-4)[Fuc(a1-3)]GlcNAc
# Outline: as §1
# [22] = target: Fuc(a1-2)Gal(b1-4)[Fuc(a1-3)]GlcNAc(b1-3)Gal(b1-4)[Fuc(a1-3)]GlcNAc(b1-3)Gal(b1-4)[Fuc(a1-3)]GlcNAc
# Outline: as §1
# [23] = target: Fuc(a1-2)Gal6S(b1-4)Glc
# Outline: as §1
# [24] = target: Fuc(a1-2)Gal6S(b1-4)Glc6S
# Outline: as §1
# [25] = target: Fuc(a1-2)Gal6S(b1-4)GlcNAc
# Outline: as §1
# [26] = target: Fuc(a1-2)[Gal(a1-3)]Gal
# Outline: as §1
# [27] = target: Fuc(a1-2)[Gal(a1-3)]Gal(b1-3)GlcNAc
# Outline: as §1
# [28] = target: Fuc(a1-2)[Gal(a1-3)]Gal(b1-3)GlcNAc(b1-2)Man(a1-3)[Fuc(a1-2)[Gal(a1-3)]Gal(b1-3)GlcNAc(b1-2)Man(a1-6)]Man(b1-4)GlcNAc(b1-4)GlcNAc
# Outline: as §1
# [29] = target: Fuc(a1-2)[Gal(a1-3)]Gal(b1-4)Glc
# Outline: as §1
# [30] = target: Fuc(a1-2)[Gal(a1-3)]Gal(b1-4)GlcNAc
# Outline: as §1
# [31] = target: Fuc(a1-2)[Gal(a1-3)]Gal(b1-4)GlcNAc(b1-2)Man(a1-3)[Fuc(a1-2)[Gal(a1-3)]Gal(b1-4)GlcNAc(b1-2)Man(a1-6)]Man(b1-4)GlcNAc(b1-4)GlcNAc
# Outline: as §1
# [32] = target: Fuc(a1-2)[Gal(a1-3)]Gal(b1-4)[Fuc(a1-3)]GlcNAc
# Outline: as §1
# [33] = target: Fuc(a1-2)[Gal(a1-4)]Gal(b1-4)GlcNAc
# Outline: as §1
# [34] = target: Fuc(a1-2)[GalNAc(a1-3)]Gal
# Outline: as §1
# [35] = target: Fuc(a1-2)[GalNAc(a1-3)]Gal(b1-3)GlcNAc
# Outline: as §1
# [36] = target: Fuc(a1-2)[GalNAc(a1-3)]Gal(b1-3)GlcNAc(b1-2)Man(a1-3)[Fuc(a1-2)[GalNAc(a1-3)]Gal(b1-3)GlcNAc(b1-2)Man(a1-6)]Man(b1-4)GlcNAc(b1-4)GlcNAc
# Outline: as §1
# [37] = target: Fuc(a1-2)[GalNAc(a1-3)]Gal(b1-4)Glc
# Outline: as §1
# [38] = target: Fuc(a1-2)[GalNAc(a1-3)]Gal(b1-4)GlcNAc
# Outline: as §1
# [39] = target: Fuc(a1-2)[GalNAc(a1-3)]Gal(b1-4)GlcNAc(b1-2)Man(a1-3)[GalNAc(a1-3)[Fuc(a1-2)]Gal(b1-4)GlcNAc(b1-2)Man(a1-6)]Man(b1-4)GlcNAc(b1-4)GlcNAc
# Outline: as §1
# [40] = target: Fuc(a1-2)[GalNAc(a1-3)]Gal(b1-4)GlcNAc(b1-3)Gal(b1-4)GlcNAc
# Outline: as §1
# [41] = target: Fuc(a1-2)[GalNAc(a1-3)]Gal(b1-4)GlcNAc(b1-3)Gal(b1-4)GlcNAc(b1-3)Gal(b1-4)GlcNAc
# Outline: as §1
# [42] = target: Fuc(a1-2)[GalNAc(a1-3)]Gal(b1-4)[Fuc(a1-3)]GlcNAc
# Outline: as §1
# [43] = target: Fuc(a1-2)[GalNAc(a1-4)]Gal(b1-4)GlcNAc
# Outline: as §1
# [44] = target: Fuc(a1-2)[GalNAc(b1-3)]Gal
# Outline: as §1
# [45] = target: Fuc(a1-3)GlcNAc
# Outline: as §1
binder,measurement,setting,value
"Neuropilin-1 (Rattus norvegicus), Q9QWJ9 (protein) MERGLPLLCATLALALALAGAFRSDKCGGTIKIENPGYLTSPGYPHSYHPSEKCEWLIQAPEPYQRIMINFNPHFDLEDRDCKYDYVEVIDGENEGGRLWGKFCGKIAPSPVVSSGPFLFIKFVSDYETHGAGFSIRYEIFKRGPECSQNYTAPTGVIKSPGFPEKYPNSLECTYIIFAPKMSEIILEFESFDLEQDSNPPGGVFCRYDRLEIWDGFPEVGPHIGRYCGQKTPGRIRSSSGILSMVFYTDSAIAKEGFSANYSVLQSSISEDFKCMEALGMESGEIHSDQITASSQYGTNWSVERSRLNYPENGWTPGEDSYREWIQVDLGLLRFVTAVGTQGAISKETKKKYYVKTYRVDISSNGEDWITLKEGNKAIIFQGNTNPTDVVFGVFPKPLITRFVRIKPASWETGISMRFEVYGCKITDYPCSGMLGMVSGLISDSQITASNQGDRNWMPENIRLVTSRTGWALPPSPHPYINEWLQVDLGDEKIVRGVIIQGGKHRENKVFMRKFKIAYSNNGSDWKMIMDDSKRKAKSFEGNNNYDTPELRAFTPLSTRFIRIYPERATHSGLGLRMELLGCEVEVPTAGPTTPNGNPVDECDDDQANCHSGTGDDFQLTGGTTVLATEKPTIIDSTIQSEFPTYGFNCEFGWGSHKTFCHWEHDSHAQLRWRVLTSKTGPIQDHTGDGNFIYSQADENQKGKVARLVSPVVYSQSSAHCMTFWYHMSGSHVGTLRVKLHYQKPEEYDQLVWMVVGHQGDHWKEGRVLLHKSLKLYQVIFEGEIGKGNLGGIAVDDISINNHIPQEDCAKPTDLDKKNTEIKIDETGSTPGYEEGKGDKNISRKPGNVLKTLDPILITIIAMSALGVLLGAVCGVVLYCACWHNGMSERNLSALENYNFELVDGVKLKKDKLNPQSNYSEA",glycan array binding signal (z-score),[1],-0.27
same,glycan array binding signal (z-score),[2],-0.143
same,glycan array binding signal (z-score),[3],-0.219
same,glycan array binding signal (z-score),[4],-0.29
same,glycan array binding signal (z-score),[5],-0.274
same,glycan array binding signal (z-score),[6],-0.315
same,glycan array binding signal (z-score),[7],4.09
same,glycan array binding signal (z-score),[8],-0.269
same,glycan array binding signal (z-score),[9],-0.257
same,glycan array binding signal (z-score),[10],-0.151
same,glycan array binding signal (z-score),[11],1.8
same,glycan array binding signal (z-score),[12],-0.288
same,glycan array binding signal (z-score),[13],-0.153
same,glycan array binding signal (z-score),[14],-0.087
same,glycan array binding signal (z-score),[15],7.46
same,glycan array binding signal (z-score),[16],-0.136
same,glycan array binding signal (z-score),[17],0.184
same,glycan array binding signal (z-score),[18],-0.338
same,glycan array binding signal (z-score),[19],0.038
same,glycan array binding signal (z-score),[20],2.97
same,glycan array binding signal (z-score),[21],-0.294
same,glycan array binding signal (z-score),[22],-0.082
same,glycan array binding signal (z-score),[23],-0.096
same,glycan array binding signal (z-score),[24],-0.115
same,glycan array binding signal (z-score),[25],0.115
same,glycan array binding signal (z-score),[26],-0.352
same,glycan array binding signal (z-score),[27],-0.339
same,glycan array binding signal (z-score),[28],1.19
same,glycan array binding signal (z-score),[29],-0.154
same,glycan array binding signal (z-score),[30],-0.156
same,glycan array binding signal (z-score),[31],7.21
same,glycan array binding signal (z-score),[32],1.28
same,glycan array binding signal (z-score),[33],-0.118
same,glycan array binding signal (z-score),[34],-0.111
same,glycan array binding signal (z-score),[35],-0.205
same,glycan array binding signal (z-score),[36],0.958
same,glycan array binding signal (z-score),[37],-0.304
same,glycan array binding signal (z-score),[38],-0.194
same,glycan array binding signal (z-score),[39],5.38
same,glycan array binding signal (z-score),[40],-0.035
same,glycan array binding signal (z-score),[41],0.098
same,glycan array binding signal (z-score),[42],-0.067
same,glycan array binding signal (z-score),[43],-0.27
same,glycan array binding signal (z-score),[44],-0.404
same,glycan array binding signal (z-score),[45],-0.273
